Drawing on PubChem BioAssay AID360 (National Center for Advancing Translational Sciences (NCATS), 2006), this text covers Potency for 61 compounds.

Screen size: about 48,000 compounds; about 550 (1.1%) were called active. Inconclusive results (about 4%) are left out. No stated cut-off is given here; in the data, active means potency below about 15 µM; inconclusive means mostly about 16 µM to 33 µM; inactive means weaker than that. Some of the results follow.
Potency means the concentration at half of the fitted maximal effect.

The assay concerns the target Lysosomal acid glucosylceramidase (Homo sapiens) (UniProt P04062). The experiment in a line: Glucocerebrosidase.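 Further: the screen sought inhibitors.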 The note with it: purified enzyme, resorufin glucoside fluorescence (screen aimed at inhibitors), 20 min. In outline: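 Compounds titrated against 0.2 nM normal enzyme, 30 uM resorufin beta-D-glucopyranoside substrate, citrate/phosphate buffer with taurocholate and tween-20, pH 5.9. Reaction ran 20 min at room temperature; fluorescence (Ex 548/Em 600) gave AC50.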
Sequence of UniProt P04062 (P04062 whole entry, looked up): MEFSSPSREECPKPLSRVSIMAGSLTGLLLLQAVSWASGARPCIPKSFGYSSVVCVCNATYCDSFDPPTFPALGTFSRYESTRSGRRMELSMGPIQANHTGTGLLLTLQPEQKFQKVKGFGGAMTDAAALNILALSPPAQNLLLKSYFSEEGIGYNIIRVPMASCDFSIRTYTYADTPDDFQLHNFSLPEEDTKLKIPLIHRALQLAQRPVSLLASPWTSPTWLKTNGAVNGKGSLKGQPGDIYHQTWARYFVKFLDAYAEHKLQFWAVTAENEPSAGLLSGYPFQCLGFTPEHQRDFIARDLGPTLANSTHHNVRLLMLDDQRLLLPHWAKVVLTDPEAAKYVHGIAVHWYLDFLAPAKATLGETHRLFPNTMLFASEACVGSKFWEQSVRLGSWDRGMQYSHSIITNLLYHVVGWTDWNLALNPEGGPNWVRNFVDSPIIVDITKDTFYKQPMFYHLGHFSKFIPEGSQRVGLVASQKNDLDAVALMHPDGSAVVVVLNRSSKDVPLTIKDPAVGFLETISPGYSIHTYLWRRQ
For the compound `Cc1cc(=O)[nH]c2ccccc12`, the Potency is inactive: > 76.9 µM.

For `O=C(C1CCN(c2nnc(N3CCCC3=O)s2)CC1)N1CCN(Cc2ccc3c(c2)OCO3)CC1`, the Potency was inactive: > 76.9 µM.

With `CCOC(=O)C1CCN(C(=O)Cn2cc(C(=O)c3ccco3)c3ccccc32)CC1`, the Potency was inactive: > 76.9 µM.

As to `CC(=O)Nc1sc2c(c1C(c1cccs1)N1CCOCC1)CCCC2` (stereo unspecified), the Potency entry is “inactive”.

`Cc1[nH]c(C)c(C(=O)O)c1CNC1CCCCC1C` (stereo unspecified): the Potency was inactive: > 76.9 µM.

For `CCCc1ccc(OCCNC(=O)CC)cc1`, the Potency is inactive: > 76.9 µM.

With `CCOC(=O)C1CCN(Cc2ccc(O)c3ncccc23)CC1`, the Potency is inactive: > 76.9 µM.

With `CN(CCNC(=O)C1(O)c2ccccc2NC(=O)N1c1ccccc1)Cc1ccccc1` (stereo unspecified), the Potency was inactive: > 76.9 µM.

Consider `COC(=O)c1ccc(C(=O)OC)c(NC(=O)COc2ccccc2OC)c1`, for which the Potency is inactive: > 76.9 µM.

As to `COc1ccc(S(=O)(=O)N(C)CC(=O)Nc2ccccc2SC)cc1Cl`, the Potency is inactive: > 76.9 µM.

Take `CC(=O)C1=C(O)C(=O)N(Cc2ccco2)C1c1ccccc1` (stereo unspecified): the Potency is inactive: > 76.9 µM.

Turning to `Clc1cccc(Cl)c1Cn1cnc2c(N3CCCCCC3)ncnc21`, the Potency is inactive: > 76.9 µM.

Regarding `Cn1c(=O)c2nc(-c3ccccc3)oc2c2ccccc21`, the Potency was inactive: > 76.9 µM.

In the case of `Nc1nc(SCC(=O)Nc2ccc(Br)cc2F)n[nH]1`, the Potency is inactive: > 76.9 µM.

For the compound `COc1ccc(C(OC(=O)c2ccco2)C(=O)NCC2CCCO2)cc1` (stereo unspecified), the Potency is inactive: > 76.9 µM.

On to `c1cnn(-c2cc(N3CCOCC3)ncn2)c1`, for which the Potency was inactive: > 76.9 µM.

As to `C/C(Cl)=C/CN1C(=O)C2C3C=CC(C3)C2C1=O` (stereo unspecified), the Potency was inactive: > 76.9 µM.

As for `COc1cc(OC)c(C2C3=C(CCCC3=O)Nc3nc4ccccc4n32)cc1OC` (stereo unspecified), the Potency was inactive: > 76.9 µM.

For `COc1ccc(C(=O)COC(=O)CCCn2c(=O)oc3ccccc32)cc1`, the Potency is inactive: > 76.9 µM.

On to `Cc1nc2sc3c(c2c(=O)o1)CCC3`, for which the Potency was inactive: > 76.9 µM.

For the compound `Cc1cc(C)nc(N(C#N)Cc2ccccc2)n1`, the Potency is inactive: > 76.9 µM.

Regarding `COc1ccccc1-c1nnc(NC(=O)C(C)C)s1`, the Potency is inactive: > 76.9 µM.

As to `Cc1ccc2nc3c(cc(C(=O)NCc4cccnc4)c(=N)n3C(C)C)c(=O)n2c1`, the Potency was inactive: > 76.9 µM.

In the case of `Cc1ccc(NC(=O)c2ccccc2O)cc1`, the Potency is inactive: > 76.9 µM.

With `COc1ccc(NC(=O)c2cnc(C)cn2)c2ncccc12`, the Potency is inactive: > 76.9 µM.

As to `COCC(=O)Nc1cccc(Br)c1`, the Potency was inactive: > 76.9 µM.

In the case of `Cc1cccc(C)c1NC(=O)Cn1c(=O)n(CCC(=O)NCc2ccco2)c(=O)c2sccc21`, the Potency is inactive: > 76.9 µM.

With `O=C(O)CN1CCN(Cc2ccccc2)C1=O`, the Potency is inactive: > 76.9 µM.

With `COc1ccc(-n2c(=O)[nH]cc(C(=O)N3CCc4ccccc43)c2=O)cc1`, the Potency is inactive: > 76.9 µM.

With `Cc1ccc(C(=O)N(c2ccccn2)C(C)c2ccco2)cc1` (stereo unspecified), the Potency is inactive: > 76.9 µM.

For `CC(Sc1ccccn1)C(=O)Nc1ccccc1` (stereo unspecified), the Potency is inactive: > 76.9 µM.

For the compound `O=C(CSc1nc2ccccc2c(=O)[nH]1)N1CCCCCC1`, the Potency was inactive: > 76.9 µM.

In the case of `COc1ccc(OC)c(C(=O)COC(=O)c2cc(C)oc2C)c1`, the Potency was inactive: > 76.9 µM.

With `O=C(c1cc2ccccc2oc1=O)N(Cc1ccc2c(c1)OCO2)Cc1ccco1`, the Potency was inactive: > 76.9 µM.

On to `Cc1n[nH]c(C)c1CCc1nc2c3ccccc3nc(SCC(N)=O)n2n1`, for which the Potency is inactive: > 76.9 µM.

`O=C(COC(=O)C1CC1)c1c[nH]c2ccccc12`: the Potency is inactive: > 76.9 µM.

Consider `CCOC(=O)CNC(=O)COc1ccc(Cl)cc1Br`, for which the Potency was inactive: > 76.9 µM.

In the case of `COC(=O)C1=C(C)N(C)C(=O)NC1c1ccccc1` (stereo unspecified), the Potency is inactive: > 76.9 µM.

Turning to `O=C(Oc1ccc(OC(=O)N2CCCCC2)cc1)c1ccccc1`, the Potency was inactive: > 76.9 µM.

`O=C(NCC1COc2ccccc2O1)C1C2C=CC3(CN(Cc4ccccc4Cl)C(=O)C13)O2` (stereo unspecified): the Potency is inactive: > 76.9 µM.

As for `O=C(O)C1C2C=CC(O2)C1C(=O)NCCCn1ccnc1` (stereo unspecified), the Potency is inactive: > 76.9 µM.

For `CCc1ccccc1NC1=NCC(=O)N1Cc1ccccc1`, the Potency was inactive: > 76.9 µM.

`Cc1ccccc1-n1c(=O)cc(NCC2CCCO2)[nH]c1=O` (stereo unspecified): the Potency is inactive: > 76.9 µM.

For the compound `Cc1nc2ccccn2c1-c1nnco1`, the Potency is inactive: > 76.9 µM.

In the case of `O=C(CCNc1n[nH]c(=O)[nH]c1=O)N1CCOCC1`, the Potency was inactive: > 76.9 µM.

In the case of `CC(C)CCNC(=O)CN(Cc1ccc2c(c1)OCO2)C(=O)Cn1nnc(-c2cccs2)n1`, the Potency was inactive: > 76.9 µM.

Turning to `CC1CCc2sc3nc(NCc4ccco4)n4ncnc4c3c2C1` (stereo unspecified), the Potency is inactive: > 76.9 µM.

Regarding `O=C(NC1CCCCCC1)C1CCN(c2nc3ccccc3o2)CC1`, the Potency was inactive: > 76.9 µM.

For `CCCN(CCC)CCSc1nc(O)c(C(C)C)c(=O)[nH]1`, the Potency is inactive: > 76.9 µM.

For `Cc1cc(SCC(=O)c2ccccc2)nc(C)n1`, the Potency is inactive: > 76.9 µM.

In the case of `O=C(c1cccc(C(F)(F)F)c1)N1CCCC1`, the Potency is inactive: > 76.9 µM.

Take `Cn1c(=O)c(=O)n(C)c2cc(S(=O)(=O)N3CCCCC3)ccc21`: the Potency was inactive: > 76.9 µM.

`COc1nc(NC(C)(C)C)nc(Oc2ccc(=O)n(-c3ccccc3)n2)n1`: the Potency was inactive: > 76.9 µM.

Turning to `CN1CCC(NC(=O)Cc2c(F)cccc2Cl)CC1`, the Potency was inactive: > 76.9 µM.

In the case of `COC(=O)CSc1nc2c(c(=O)[nH]c(=O)n2C)n1CCC(C)C`, the Potency is inactive: > 76.9 µM.

Turning to `Cc1cc(C)c(C#N)c(=N)o1`, the Potency was inactive: > 76.9 µM.

Regarding `CCOc1ccc(OCC)c(NC(=O)CN2CCN(c3cccc(C)c3C)CC2)c1`, the Potency is inactive: > 76.9 µM.

With `CCn1c2ccccc2c2nnc(SCC(=O)Nc3ccc4c(c3)OCO4)nc21`, the Potency was inactive: > 76.9 µM.

As to `CC(=O)Cc1nsc(NC(=O)c2csc3c2CCCC3)n1`, the Potency was inactive: > 76.9 µM.

On to `CN(C)c1ccc(/C=[N+](\[O-])C2SC(=S)N(C)C2(C)C)cc1` (stereo unspecified), for which the Potency was inactive: > 76.9 µM.

With `Cc1ccc(Nc2nc(C)c(CCC(C)C)c(=O)[nH]2)cc1`, the Potency was inactive: > 76.9 µM.
